# From the supplement of paper PMC12645437, “Orthogonal IMiD-Degron Pairs Induce Selective Protein Degradation in Cells” (ACS Chemical Biology, 2025)
# This is one part of the list.
# B1: Q9UKT9 (peptide)
# chain: LMCPICGFCCTQKGNLLRHIKL
# B2: Q9UKT9 (peptide)
# chain: FECDVCGAIFTQKGNLLRHIKL
# B3: Q9UKT9 (peptide)
# chain: FQCEICGHEFTQKGNLLRHIKL
# B4: Q9UKT9 (peptide)
# chain: FVCPVCGAWFTQKGNLLRHIKL
# B5: Q9UKT9 (peptide)
# chain: FRCNVCGACFTQKGNLLRHIKL
# B6: Q9UKT9 (peptide)
# chain: LECEICGFMCTQKGNLLRHIKL
# B7: Q9UKT9 (peptide)
# chain: FECDQCGAKFTQKGNLLRHIKL
# B8: Q9UKT9 (peptide)
# chain: FYCPVCGASFTQKGNLLRHIKL
# B9: Q9UKT9 (peptide)
# chain: FQCDQCGANFTQKGNLLRHIKL
# B10: Q9UKT9 (peptide)
# chain: FICPQCGACFTQKGNLLRHIKL
# B11: Q9UKT9 (peptide)
# chain: FVCNVCGAIFTQKGNLLRHIKL
# B12: Q9UKT9 (peptide)
# chain: LFCNQCGFKCTQKGNLLRHIKL
# B13: Q9UKT9 (peptide)
# chain: FWCNQCGHFFTQKGNLLRHIKL
# B14: Q9UKT9 (peptide)
# chain: FNCEVCGAIFTQKGNLLRHIKL
# B15: Q9UKT9 (peptide)
# chain: FGCPVCGAWFTQKGNLLRHIKL
# B16: Q9UKT9 (peptide)
# chain: LYCNQCGFNCTQKGNLLRHIKL
# B17: Q9UKT9 (peptide)
# chain: FCCNQCGREFTQKGNLLRHIKL
# B18: Q9UKT9 (peptide)
# chain: LYCNQCGFYCTQKGNLLRHIKL
# B19: Q9UKT9 (peptide)
# chain: LVCEICGFDCTQKGNLLRHIKL
# B20: Q9UKT9 (peptide)
# chain: FYCNVCGANFTQKGNLLRHIKL
# B21: Q9UKT9 (peptide)
# chain: FWCPICGAKFTQKGNLLRHIKL
# B22: Q9UKT9 (peptide)
# chain: LGCPICGFSCTQKGNLLRHIKL
# B23: Q9UKT9 (peptide)
# chain: FICNVCGADFTQKGNLLRHIKL
# B24: Q9UKT9 (peptide)
# chain: LVCEICGFMCTQKGNLLRHIKL
# B25: Q9UKT9 (peptide)
# chain: FICPICGHTFTQKGNLLRHIKL
# B26: Q9UKT9 (peptide)
# chain: FRCDVCGAFFTQKGNLLRHIKL
# B27: Q9UKT9 (peptide)
# chain: FWCPVCGACFTQKGNLLRHIKL
# B28: Q9UKT9 (peptide)
# chain: FLCNVCGALFTQKGNLLRHIKL
# B29: Q9UKT9 (peptide)
# chain: FGCDVCGATFTQKGNLLRHIKL
# B30: Q9UKT9 (peptide)
# chain: LYCNQCGFWCTQKGNLLRHIKL
# B31: Q9UKT9 (peptide)
# chain: FHCPICGRIFTQKGNLLRHIKL
# B32: Q9UKT9 (peptide)
# chain: LVCPICGFICTQKGNLLRHIKL
# B33: Q9UKT9 (peptide)
# chain: LMCEICGFACTQKGNLLRHIKL
# B34: Q9UKT9 (peptide)
# chain: FFCEQCGAAFTQKGNLLRHIKL
# B35: Q9UKT9 (peptide)
# chain: FHCPQCGAGFTQKGNLLRHIKL
# B36: Q9UKT9 (peptide)
# chain: FWCEICGHWFTQKGNLLRHIKL
# B37: Q9UKT9 (peptide)
# chain: FKCDQCGALFTQKGNLLRHIKL
# B38: Q9UKT9 (peptide)
# chain: FYCNVCGAEFTQKGNLLRHIKL
# B39: Q9UKT9 (peptide)
# chain: LACNQCGFHCTQKGNLLRHIKL
# B40: Q9UKT9 (peptide)
# chain: FWCPQCGAHFTQKGNLLRHIKL
# B41: Q9UKT9 (peptide)
# chain: FGCEVCGACFTQKGNLLRHIKL
# B42: Q9UKT9 (peptide)
# chain: LCCPICGFRCTQKGNLLRHIKL
# B43: Q9UKT9 (peptide)
# chain: FHCEICGREFTQKGNLLRHIKL
# B44: Q9UKT9 (peptide)
# chain: FICNVCGALFTQKGNLLRHIKL
# B45: Q9UKT9 (peptide)
# chain: FSCEICGAIFTQKGNLLRHIKL
# B46: Q9UKT9 (peptide)
# chain: FACPQCGAQFTQKGNLLRHIKL
# B47: Q9UKT9 (peptide)
# chain: FQCEICGHRFTQKGNLLRHIKL
# B48: Q9UKT9 (peptide)
# chain: FLCNVCGANFTQKGNLLRHIKL
# B49: Q9UKT9 (peptide)
# chain: FCCEICGRGFTQKGNLLRHIKL
# B50: Q9UKT9 (peptide)
# chain: FKCEICGHLFTQKGNLLRHIKL
# Molecular target: no compound (DMSO)
# Assay: log2 fold change of degron read counts, EGFP-low vs EGFP+ sorted cells; higher = lower degron-EGFP level without compound (poor expression or instability)
# Conditions: compound: DMSO control; 18 h
# 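Further: jurkat cells carrying a lentiviral library of mutant zinc finger degrons fused to EGFP plus mCherry, mCherry+ cells FACS sorted, degron abundance counted by next-generation sequencing.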
row,Sequence,log2 fold change of degron read counts
1,B1,1.14
2,B2,-0.828
3,B3,-2.3
4,B4,0.977
5,B5,0.0111
6,B6,-0.804
7,B7,-3.01
8,B8,-0.226
9,B9,-2.28
10,B10,-0.0459
11,B11,0.0733
12,B12,0.679
13,B13,1.73
14,B14,-0.934
15,B15,0.693
16,B16,1.28
17,B17,-1.12
18,B18,1.93
19,B19,-0.387
20,B20,-0.3
21,B21,0.362
22,B22,0.889
23,B23,-1.07
24,B24,0.0964
25,B25,-1.12

row,Sequence,log2 fold change of degron read counts
1,B26,-0.829
2,B27,1.21
3,B28,-0.148
4,B29,-0.722
5,B30,1.63
6,B31,-0.377
7,B32,1.71
8,B33,0.0238
9,B34,-1
10,B35,-0.957
11,B36,1.15
12,B37,-2.05
13,B38,-1.1
14,B39,0.122
15,B40,0.403
16,B41,-2.17
17,B42,0.861
18,B43,-1.51
19,B44,-0.44
20,B45,-0.305
21,B46,-1.13
22,B47,-1.55
23,B48,-0.724
24,B49,-0.32
25,B50,-1.56
